Measured values published in the supplement of paper PMC3334620.
Over roughly 33,000 sequences, “E-score (-0.5 to 0.5)” has its median near -0.035; the highest 2% begin near 0.35. The list shows a part of the results.

Target: T1, Pdr3 (UniProt P33200)
T1 sequence: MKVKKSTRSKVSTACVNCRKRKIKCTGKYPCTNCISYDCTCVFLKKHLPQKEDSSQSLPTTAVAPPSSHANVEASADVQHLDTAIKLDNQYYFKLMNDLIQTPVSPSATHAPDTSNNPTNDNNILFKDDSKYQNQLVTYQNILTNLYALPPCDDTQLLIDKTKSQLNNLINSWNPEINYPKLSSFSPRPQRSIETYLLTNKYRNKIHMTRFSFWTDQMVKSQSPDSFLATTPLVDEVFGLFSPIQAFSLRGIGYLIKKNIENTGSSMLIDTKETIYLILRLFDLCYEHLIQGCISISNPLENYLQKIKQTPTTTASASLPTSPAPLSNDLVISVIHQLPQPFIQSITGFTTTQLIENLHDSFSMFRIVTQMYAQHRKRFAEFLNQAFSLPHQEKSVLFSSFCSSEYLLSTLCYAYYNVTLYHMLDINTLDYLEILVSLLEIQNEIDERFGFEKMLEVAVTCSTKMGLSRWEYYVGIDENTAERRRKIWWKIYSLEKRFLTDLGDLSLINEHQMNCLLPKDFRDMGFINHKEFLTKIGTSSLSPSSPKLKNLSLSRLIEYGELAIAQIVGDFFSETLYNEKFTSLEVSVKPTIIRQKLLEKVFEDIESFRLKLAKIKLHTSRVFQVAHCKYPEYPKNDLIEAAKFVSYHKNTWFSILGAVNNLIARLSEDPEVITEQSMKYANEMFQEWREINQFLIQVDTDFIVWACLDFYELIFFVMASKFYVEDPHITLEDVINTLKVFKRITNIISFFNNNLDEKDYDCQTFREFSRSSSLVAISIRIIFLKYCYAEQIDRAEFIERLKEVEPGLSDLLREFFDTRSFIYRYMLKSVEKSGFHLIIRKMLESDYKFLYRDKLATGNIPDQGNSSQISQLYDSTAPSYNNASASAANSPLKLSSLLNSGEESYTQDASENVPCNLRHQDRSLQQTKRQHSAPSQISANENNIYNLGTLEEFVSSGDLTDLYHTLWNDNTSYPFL
Test: PBM E-score (8-mer binding enrichment) (E-score (-0.5 to 0.5)); higher = stronger / more preferred TF binding; most listed sequences are background and not binding sites
Settings: protein concentration: 200 nM; construct: GST-full length
In short: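 Universal all-10-mer Agilent arrays, fresh or stripped once, were converted to double-stranded form by primer extension. GST-tagged yeast transcription factors from PURExpress in vitro transcription/translation, full-length or DNA-binding domain only, were applied at about 100-200 nM and detected with fluorescent anti-GST. After masliner normalisation, the Universal PBM Analysis Suite scored each ungapped eight-base word together with its reverse complement by E-score.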

Sequence | PBM E-score
GCGCTGAC | 0.117
CTGCACCC | 0.0546
ATGACGGC | 0.141
CGAGGAAA | 0.167
CTATTTTC | 0.118
AGATATGC | 0.0975
AAGCGTCC | -0.0745
CAGCAGAG | -0.131
GCTGGCCC | -0.119
CTTTACAC | 0.0484
AAATCCTC | -0.0269
ATAACTCC | 0.042
TCGTTGAA | -0.112
AAGGTACA | -0.274
AAAAGTCA | -0.138
CGCTAAAG | -0.0518
ACTTGTGC | -0.0441
CAAAGAGA | -0.131
CTGGCAGC | -0.136
ACGCGTCC | 0.172
AGCATTTA | -0.229
CGGATCCC | 0.374
AGACTTGC | -0.243
ACAATGGC | -0.107
GTACTGAA | 0.0534

Sequence | PBM E-score
CTGGCCGA | 0.161
ACCATGCA | 0.144
CAATCATG | -0.189
GATTCGCA | 0.0644
GCGAGACA | -0.186
CAATCATC | -0.0327
AGTTCTGG | -0.0246
ACCGCCAT | 0.14
AAGCCCAC | -0.0697
CTTCGCCA | 0.00407
ACGTCCCG | 0.279
GATTACCC | 0.187
GATAGGCC | -0.0163
CAAAATCG | 0.0231
GACCCGAA | 0.198
CCTAAGGC | -0.303
GTCTTCTA | -0.0647
CGCTTTGC | 0.0905
AGGCGCAT | 0.0526
AGTCACGG | 0.188
CTAATTCC | 0.234
CACACGCC | 0.149
AGGAGGTG | -0.274
ACAAGCTG | -0.0323
CGAGATCC | 0.244

Sequence | PBM E-score
CACCTAAA | -0.178
AAGCAGTA | -0.273
CATGGTCA | -0.0253
GCGTAGCC | -0.287
ATCGAGAA | -0.05
AGAAAGGG | -0.246
GGCTAATA | 0.0603
CAAGCGCG | 0.171
CCCGGCAC | 0.154
CCCAAGTA | -0.0962
CTAGCAGA | -0.228
AATCAAGG | 0.0734
CTGAGGGA | -0.172
GCAGTTTA | -0.158
GTACGCAA | -0.201
ATTTAAAA | 0.205
GTCAAGAA | -0.0491
ATTGTGAC | -0.0378
GGGACCTA | 0.0394
CGCACACG | 0.0483
AGAGTCTA | -0.418
CGAACCTC | 0.0087
ACTGGGCC | -0.108
AACGGTGC | -0.178
CCCAAACC | 0.159

Sequence | PBM E-score
CAATAATA | 0.124
AAGTGGAA | -0.0995
CAGCCTTA | -0.231
TCATTCAA | -0.00296
GGAGTGAA | 0.0992
GTGTCGGA | 0.205
TAGAAGCA | -0.304
AGGTGTTG | -0.126
ACCGCACC | 0.183
AACCATAA | -0.127
AGCACCGC | 0.0178
AGCTGAAG | -0.065
ATTACCGC | 0.233
GTCACTAA | -0.0506
AGGCGCGA | 0.0925
GCTTCCCC | -0.0508
ATCAACCC | 0.208
TCAAGGGA | -0.00064
AGCTCCAA | -0.014
CCTGGCAA | -0.0427
GGCCTCGA | -0.0838
CAAAAAGA | -0.085
CGTTAGGC | -0.188
ACCCAGAG | -0.132
CTACGACA | 0.0229

Sequence | PBM E-score
CCCGCCAG | 0.0336
CTCGGAGC | 0.276
AACCTACT | -0.0775
CATTTCCG | 0.411
AAGGGTGC | -0.192
TAGTCTCA | -0.119
ACCCCACA | -0.0531
AACATATA | 0.0565
AGGGCTGG | -0.0783
CTAAGTTC | -0.0571
CGGGGGGA | -0.0427
GACCCGTC | 0.214
CATTTGGA | -0.0375
AGAGTTCA | -0.245
CACCGACC | 0.0698
CAAGCAAG | -0.0908
AATGTTAA | -0.0154
ACTGCGAT | 0.0238
AGACCGCA | -0.0798
GGAGATCC | 0.16
AATGTCTA | -0.254
TTGCAAAA | -0.0444
GTATTCCA | 0.0986
CGAAGTGC | 0.0376
CCTAGGCG | -0.109

Sequence | PBM E-score
TTACTAAA | -0.135
GGGGGCCA | -0.0282
ATTACTAA | -0.0285
ACCCATTC | 0.111
ATACTATG | 0.128
ACATGCTG | -0.158
ATAATGGA | 0.0808
GTCAGAAA | -0.183
ACACAACC | -0.0449
CATGATTC | -0.0509
AATAAAAC | -0.0958
GGCAAGTA | 0.0167
CGTGCAGC | 0.112
CTACACAC | -0.178
AATAAGCG | -0.151
CCCGTAGC | -0.118
CAACGTTA | -0.189
GACGGGGC | 0.112
AATTCACA | 0.0469
CTTTGCGC | -0.00912
CATTTCGC | 0.135
ATCAAGCG | 0.0362
AAAATGAA | -0.187
CGACGGAC | 0.342
GATGTGTA | -0.101

Sequence | PBM E-score
CCATTGGA | -0.111
GTTACTCA | 0.00677
CTTGCGCA | 0.0862
CCGACGGC | 0.237
CGTGATGC | 0.049
CGGGATGC | 0.311
GCGCATTA | 0.212
AGATCTTA | -0.163
AAATGCGG | 0.231
CACCACCA | -0.0856
CCTTAACG | 0.139
ACATGCGT | -0.265
ACAATGTG | -0.0811
GTTTGAAA | -0.0863
CGCTTACC | -0.0482
GCCACATA | -0.0989
CCTTTCAG | -0.185
GGAGCGCA | 0.0206
CAAGTTAC | -0.0624
CCTTATGA | -0.0406
CGAGGAAG | 0.0123
AGTGCGTA | -0.207
